# From PMC5758830
# The chains behind the UniProt entries cited, without tags or fusion partners. Where a name states a change or a piece, a line headed by the entry shows the natural chain unless it says otherwise.
# UniProt Q9H1Y0: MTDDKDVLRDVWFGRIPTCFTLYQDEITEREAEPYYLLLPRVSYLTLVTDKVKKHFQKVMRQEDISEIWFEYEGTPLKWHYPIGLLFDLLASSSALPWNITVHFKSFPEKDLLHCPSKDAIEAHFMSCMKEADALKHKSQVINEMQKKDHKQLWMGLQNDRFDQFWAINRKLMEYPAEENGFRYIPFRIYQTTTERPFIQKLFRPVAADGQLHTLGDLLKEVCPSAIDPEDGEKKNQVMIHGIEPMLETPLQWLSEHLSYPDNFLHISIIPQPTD
# UniProt Q9NT62: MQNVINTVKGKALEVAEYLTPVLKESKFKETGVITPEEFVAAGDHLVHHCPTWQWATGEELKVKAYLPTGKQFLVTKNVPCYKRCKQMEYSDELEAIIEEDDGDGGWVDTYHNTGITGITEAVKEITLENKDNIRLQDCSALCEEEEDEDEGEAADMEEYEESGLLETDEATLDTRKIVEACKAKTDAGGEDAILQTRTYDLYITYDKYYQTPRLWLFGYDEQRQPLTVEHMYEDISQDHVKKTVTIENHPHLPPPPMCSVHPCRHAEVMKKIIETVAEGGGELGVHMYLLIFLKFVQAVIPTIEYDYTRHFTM
# UniProt Q6AZ50: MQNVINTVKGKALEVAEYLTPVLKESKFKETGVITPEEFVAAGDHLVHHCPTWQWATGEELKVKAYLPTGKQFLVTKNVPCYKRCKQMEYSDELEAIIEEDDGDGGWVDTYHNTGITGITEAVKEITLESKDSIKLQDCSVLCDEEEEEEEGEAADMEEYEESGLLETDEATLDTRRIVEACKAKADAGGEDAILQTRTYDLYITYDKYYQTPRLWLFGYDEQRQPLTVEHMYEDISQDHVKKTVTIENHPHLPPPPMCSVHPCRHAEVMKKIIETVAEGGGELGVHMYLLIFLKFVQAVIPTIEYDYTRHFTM
# UniProt O94817: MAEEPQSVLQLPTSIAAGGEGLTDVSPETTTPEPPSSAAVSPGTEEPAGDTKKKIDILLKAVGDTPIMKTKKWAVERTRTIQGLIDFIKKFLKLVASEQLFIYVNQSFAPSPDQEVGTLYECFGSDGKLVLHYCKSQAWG
# Positions count from the first letter of the chain named. Results are given in words; binding and its absence hold for the method and conditions named. For some of these results: Binding seen in cells or lysates may run through a third protein. Some binding calls cover weakened binding; strength is not graded here. For some of these results: Sequences can lack the tags named with a protein.
# T1: wild-type Atg7 (transfected) (UniProt O95352)
# T1 sequence: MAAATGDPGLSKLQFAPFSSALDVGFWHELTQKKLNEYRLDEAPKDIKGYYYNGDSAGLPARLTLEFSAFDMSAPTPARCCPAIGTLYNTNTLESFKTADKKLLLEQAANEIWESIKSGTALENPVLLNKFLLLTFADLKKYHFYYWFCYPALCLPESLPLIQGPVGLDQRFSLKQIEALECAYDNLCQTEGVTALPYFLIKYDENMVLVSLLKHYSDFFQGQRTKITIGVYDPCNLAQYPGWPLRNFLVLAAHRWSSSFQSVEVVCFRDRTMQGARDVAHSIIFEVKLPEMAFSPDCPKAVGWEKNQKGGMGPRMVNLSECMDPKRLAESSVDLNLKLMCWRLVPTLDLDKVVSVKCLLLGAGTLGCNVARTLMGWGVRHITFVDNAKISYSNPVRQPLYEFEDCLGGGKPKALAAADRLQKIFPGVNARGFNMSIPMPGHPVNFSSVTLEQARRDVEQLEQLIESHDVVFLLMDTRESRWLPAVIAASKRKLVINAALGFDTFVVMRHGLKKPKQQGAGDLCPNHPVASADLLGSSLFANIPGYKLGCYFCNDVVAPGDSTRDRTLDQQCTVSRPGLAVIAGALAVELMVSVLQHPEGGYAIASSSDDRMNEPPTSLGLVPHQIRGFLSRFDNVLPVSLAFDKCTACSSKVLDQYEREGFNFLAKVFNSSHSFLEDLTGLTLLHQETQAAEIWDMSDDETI
# T2: Atg7 (rat (endogenous in aortic SMC)) (UniProt Q641Y5)
# T2 sequence: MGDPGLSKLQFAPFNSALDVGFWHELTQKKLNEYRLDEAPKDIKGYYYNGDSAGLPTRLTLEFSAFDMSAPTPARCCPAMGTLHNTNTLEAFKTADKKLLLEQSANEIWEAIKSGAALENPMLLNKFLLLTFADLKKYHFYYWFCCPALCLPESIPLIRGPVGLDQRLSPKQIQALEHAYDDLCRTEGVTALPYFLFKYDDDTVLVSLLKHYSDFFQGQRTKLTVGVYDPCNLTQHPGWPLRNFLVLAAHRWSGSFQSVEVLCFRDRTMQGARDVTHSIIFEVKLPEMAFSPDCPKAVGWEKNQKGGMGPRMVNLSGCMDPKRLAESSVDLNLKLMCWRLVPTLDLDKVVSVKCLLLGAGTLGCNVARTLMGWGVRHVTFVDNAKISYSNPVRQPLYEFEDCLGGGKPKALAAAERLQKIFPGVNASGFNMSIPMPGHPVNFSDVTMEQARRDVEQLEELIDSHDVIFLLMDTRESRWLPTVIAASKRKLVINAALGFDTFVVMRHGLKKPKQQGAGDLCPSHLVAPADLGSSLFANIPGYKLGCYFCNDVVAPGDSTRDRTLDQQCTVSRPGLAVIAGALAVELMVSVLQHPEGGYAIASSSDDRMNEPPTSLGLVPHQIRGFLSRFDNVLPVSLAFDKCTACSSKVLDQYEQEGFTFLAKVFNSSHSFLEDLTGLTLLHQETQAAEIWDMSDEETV
# T3: C572A Atg7 (UniProt O95352)
# T3 sequence: T1 sequence with C572A
# T4: recombinant human His6-Atg7 (human), O95352
# T4 chain: T1 sequence
# B1: recombinant human His6-Atg7, O95352 1-703 (enzyme)
# chain: T1 sequence
# What was measured:
# [1] = molecular target: T1, wild-type Atg7 (transfected); experiment: non-reducing SDS-PAGE with immunoblot; rat aortic SMC (untransfected, siRNA-treated or transfected), fed, amino acid starved (EBSS 1 h) with or without H2O2, or oxLDL, lysed into sample buffer with maleimide; shows covalent complexes only; complexes tested with hydroxylamine and beta-mercaptoethanol
# [2] = molecular target: T2, Atg7 (rat (endogenous in aortic SMC)); experiment: as above
# [3] = molecular target: T2, Atg7 (rat (endogenous in aortic SMC)); experiment: proximity ligation; Duolink In Situ kit, SMC untreated or in EBSS 1 h, or H2O2 in complete media; fixed, permeabilised, primary Atg3 and Atg7 antibodies; confocal microscopy
# [4] = molecular target: T2, Atg7 (rat (endogenous in aortic SMC)); experiment: condition: only amino acid deprivation (EBSS) with 100 µM H2O2; proximity ligation; Duolink In Situ kit, SMC in EBSS with 100 µM H2O2 for 1 h; fixed, permeabilised, primary Atg3 and Atg7 antibodies; confocal microscopy
# C572A Atg7 = molecular target: T3, C572A Atg7; experiment: non-reducing SDS-PAGE with immunoblot; rat aortic SMC (untransfected, siRNA-treated or transfected), fed, amino acid starved (EBSS 1 h) with or without H2O2, or oxLDL, lysed into sample buffer with maleimide; shows covalent complexes only; complexes tested with hydroxylamine and beta-mercaptoethanol
# [5] = molecular target: Atg5 (human (endogenous in HEK)) (UniProt Q9H1Y0); experiment: non-reducing SDS-PAGE with immunoblot; HEK cells (untransfected or transfected), fed, amino acid starved (EBSS 1 h) with or without H2O2, lysed directly into SDS sample buffer with 100 mM maleimide; shows covalent complexes only; complexes tested with hydroxylamine and beta-mercaptoethanol
# [6] = molecular target: T4, recombinant human His6-Atg7 (human), …; experiment: non-reducing SDS-PAGE with Coomassie stain; in vitro lipidation reaction: 5 µM His-MAP1LC3B, 1 µM His6-Atg3 and His6-Atg7, 30 µM liposomes, 0.2 mM DTT, 10 mM MgCl2, 5 mM ATP, 50 mM Tris-HCl pH 7, 150 mM NaCl, 30 °C up to 60 min; stopped with sample buffer with 100 mM maleimide; shows covalent complexes only; both purified; settings: remark: other sources report otherwise
molecule,measurement,setting,value
C264A mCherryAtg3 (from UniProt Q9NT62 1-314) (enzyme),binding,[1],no binding
Atg3 (from UniProt Q6AZ50 1-314) (enzyme),binding,[2],binds
same,binding,[3],binds
same,binding,[4],no binding
wild-type mCherry-Atg3 (from UniProt Q9NT62 1-314) (enzyme),binding,C572A Atg7,no binding
Atg12 (from UniProt O94817 1-140),binding,[5],binds
B1,binding,[6],no binding
